# Results from paper PMC9338292.
# Protein sequences, listed by entry. Tags and fused reporters are not part of them.
# UniProt P50750: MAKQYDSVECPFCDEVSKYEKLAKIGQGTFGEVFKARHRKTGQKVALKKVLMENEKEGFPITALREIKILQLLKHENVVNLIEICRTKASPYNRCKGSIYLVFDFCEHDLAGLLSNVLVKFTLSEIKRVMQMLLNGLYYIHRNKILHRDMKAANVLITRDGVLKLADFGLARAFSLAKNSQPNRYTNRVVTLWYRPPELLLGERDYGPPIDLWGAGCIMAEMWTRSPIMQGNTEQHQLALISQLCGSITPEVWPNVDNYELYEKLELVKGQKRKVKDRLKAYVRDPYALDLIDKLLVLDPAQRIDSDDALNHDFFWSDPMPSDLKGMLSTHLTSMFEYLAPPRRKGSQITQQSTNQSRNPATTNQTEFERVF
# UniProt O94992: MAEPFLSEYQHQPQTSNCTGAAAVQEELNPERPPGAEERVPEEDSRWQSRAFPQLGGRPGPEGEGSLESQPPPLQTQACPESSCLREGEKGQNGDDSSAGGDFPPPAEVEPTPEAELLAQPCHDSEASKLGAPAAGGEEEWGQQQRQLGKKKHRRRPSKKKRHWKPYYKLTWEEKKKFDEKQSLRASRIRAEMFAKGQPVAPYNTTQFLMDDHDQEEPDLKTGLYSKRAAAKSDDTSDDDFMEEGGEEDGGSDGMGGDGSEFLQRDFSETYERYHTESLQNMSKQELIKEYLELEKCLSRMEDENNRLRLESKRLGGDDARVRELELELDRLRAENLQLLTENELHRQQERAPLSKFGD
# No constants are given. Whether binding was seen depends on the method and setting. Binding seen in cells or lysates may run through a third protein. Some binding calls cover weakened binding; strength is not graded here. For some of these results: Tags and fused reporters may be left off the sequences shown.
# How the values were obtained:
# HA-tagged AFF1 [1] = molecular target: T1, HA-tagged AFF1 (UniProt P51825); assay: co-IP; anti-HA antibody on Protein G magnetic beads, nuclear lysate of keratinocytes expressing HA-AFF1, overnight 4 °C, 150 mM NaCl, 50 mM Tris pH 7.5, NP-40; undifferentiated (progenitor) state; for CDK9 and P-CDK9 also the differentiated state; western blot
# T1 sequence: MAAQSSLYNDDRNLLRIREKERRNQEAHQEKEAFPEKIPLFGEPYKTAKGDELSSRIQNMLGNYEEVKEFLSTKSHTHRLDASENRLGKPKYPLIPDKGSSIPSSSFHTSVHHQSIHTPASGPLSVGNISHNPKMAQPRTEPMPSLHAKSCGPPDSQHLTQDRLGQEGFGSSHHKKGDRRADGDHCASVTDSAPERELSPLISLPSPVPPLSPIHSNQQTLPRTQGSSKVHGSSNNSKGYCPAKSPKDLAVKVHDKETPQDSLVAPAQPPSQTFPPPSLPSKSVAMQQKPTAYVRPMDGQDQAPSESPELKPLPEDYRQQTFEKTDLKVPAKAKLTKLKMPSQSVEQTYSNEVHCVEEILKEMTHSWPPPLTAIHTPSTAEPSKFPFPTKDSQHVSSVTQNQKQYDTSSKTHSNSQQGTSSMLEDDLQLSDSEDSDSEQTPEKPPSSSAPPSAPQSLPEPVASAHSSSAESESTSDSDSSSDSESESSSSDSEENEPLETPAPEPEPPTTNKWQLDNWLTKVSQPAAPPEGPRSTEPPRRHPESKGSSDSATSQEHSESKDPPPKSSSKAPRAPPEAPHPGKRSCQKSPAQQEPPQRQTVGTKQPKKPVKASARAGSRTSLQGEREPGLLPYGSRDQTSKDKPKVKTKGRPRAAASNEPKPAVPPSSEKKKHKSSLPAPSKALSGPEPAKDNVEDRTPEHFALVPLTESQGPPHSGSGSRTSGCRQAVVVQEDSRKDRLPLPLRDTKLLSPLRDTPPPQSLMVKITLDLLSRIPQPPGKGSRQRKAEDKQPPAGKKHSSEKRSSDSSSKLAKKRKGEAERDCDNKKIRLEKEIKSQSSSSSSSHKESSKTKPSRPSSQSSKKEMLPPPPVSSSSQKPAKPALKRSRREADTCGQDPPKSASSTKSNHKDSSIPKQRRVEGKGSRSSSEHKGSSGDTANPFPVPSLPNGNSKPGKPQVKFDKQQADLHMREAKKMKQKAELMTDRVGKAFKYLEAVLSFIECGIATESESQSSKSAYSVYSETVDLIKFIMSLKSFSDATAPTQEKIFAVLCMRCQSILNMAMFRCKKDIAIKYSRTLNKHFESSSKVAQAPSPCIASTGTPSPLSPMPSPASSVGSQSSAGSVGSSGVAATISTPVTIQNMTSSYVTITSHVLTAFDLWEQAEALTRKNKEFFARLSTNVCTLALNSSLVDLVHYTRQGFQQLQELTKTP
# HA-tagged CDK9 [2] = molecular target: HA-tagged CDK9 (UniProt P50750); assay: co-IP; anti-HA antibody on Protein G magnetic beads, nuclear lysate of undifferentiated keratinocytes expressing HA-CDK9, treated with DMSO as control; western blot for HA and HEXIM1
# HA-tagged CDK9 [3] = molecular target: HA-tagged CDK9 (UniProt P50750); assay: co-IP; anti-HA antibody on Protein G magnetic beads, nuclear lysate of undifferentiated keratinocytes expressing HA-CDK9, treated with TPA (PKC activator) for 1 hour; western blot for HA and HEXIM1
# HA-tagged CDK9 [4] = molecular target: HA-tagged CDK9 (UniProt P50750); assay: co-IP; anti-HA antibody on Protein G magnetic beads, nuclear lysate of undifferentiated keratinocytes expressing HA-CDK9, treated with KL (SEC peptidomimetic inhibitor) for 3 hours; western blot for HA and HEXIM1
# HA-tagged AFF1 [5] = molecular target: T1, HA-tagged AFF1; assay: condition: only keratinocytes in the differentiated state; co-IP; anti-HA antibody on Protein G magnetic beads, nuclear lysate of keratinocytes expressing HA-AFF1 in the differentiated state (100% confluency, 1.2 mM CaCl2, four days); western blot
binding (HA-tagged AFF1 [1]),binding (HA-tagged CDK9 [2]),binding (HA-tagged AFF1 [5]),Substance,binding (HA-tagged CDK9 [3]),binding (HA-tagged CDK9 [4])
binds,,,P-CDK9 (phosphorylated threonine 186) (from UniProt P50750 1-372) (enzyme),,
binds,binds,no binding,HEXIM1 (from UniProt O94992 1-359),no binding (condition: cells treated with TPA for 1 hour),no binding (condition: cells treated with KL for 3 hours)
binds,,,CDK9 (from UniProt P50750 1-372) (enzyme),,
